According to PubChem BioAssay AID1347120 (National Center for Advancing Translational Sciences (NCATS), 2019):
The whole screen tested about 390,000 compounds, of which about 930 (0.24%) were called active. This list was built around the results that the source calls inconclusive (neither active nor inactive); the mix of calls is not that of the screen. Calls come from the whole dose curve; as a rule, active = well fitted activation curve with a large enough effect; inconclusive = small, poorly fitted or top-dose-only effect; inactive = no such curve, though single readings can be large or run the other way. A potency beside an inconclusive call is a rough fit, not a confirmed value.

Experiment: qHTS for Suppressors of FUS Proteinopathy: Primary screen using FUS-linked yeast assay; note: nearly all actives have a fitted effect of over 55% in size;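 for growth rescue (activation): plate controls were DMSO vehicle for no effect and reference control for full effect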
Settings: S. cerevisiae FUS-expressing, OD600, 24 h; Potency: growth rescue; growth rescue (activation): at 76.6 µM (top of the series)
Outline: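 Galactose (2%) drives FUS expression in yeast precultured in raffinose; seeding density OD 0.005. Test compounds incubated 24hr at 30C and 99% humidity before absorbance at 600 nm was measured.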
Potency is the fitted concentration of half-maximal effect; tags give direction and shape of the fitted curve.

SMILES	Potency	growth rescue (activation)
COc1ccc(CCNC(=O)c2sc3ccccc3c2Cl)cc1OC	inactive	–
C#CCN(C[C@H]1[C@H](OC(=O)Nc2cccs2)[C@H](OC(=O)Nc2cccs2)C[C@H]2C(=O)N(c3ccccc3)C(=O)[C@@H]12)S(=O)(=O)c1ccc(C)cc1	inconclusive: 20 µM [activator, partial curve, poor fit]	–
C=CCn1c(=N)n(CC(=O)c2ccc(Br)cc2)c2ccccc21	inconclusive: 50.1 µM [activator, single point]	–
O=C(OCc1cccc(C(F)(F)F)c1)c1cc(S(=O)(=O)N2CCOCC2)ccc1F	inconclusive: 50.1 µM [activator, single point]	–
C#CCOCCOCCOCCNc1nc(N2CCOCC2)nc(N2CCN(C(=O)[C@H](CCC(=O)O)n3cc(C(N)CO)nn3)CC2)n1 (stereo partly specified)	inconclusive: 20 µM [activator, single point]	–
O=C(CN1C(=O)CCSc2ccccc21)Nc1ccc(Cl)cc1	inactive	–
COc1ccc(N(C)S(=O)(=O)c2cccc(C(=O)Nc3ccc(N4CCOCC4)cc3)c2)cc1	inconclusive: 35.5 µM [activator, single point]	–
COC(=O)C1OC(OC2CC[C@]3(C)C(CC[C@@]4(C)[C@@H]3CC=C3[C@@H]5CC(C)(C)CC[C@]5(C(=O)OC5OC(CO)C(O)C(O)C5O)CC[C@]34C)C2(C)C)C(O)C(O)C1O[C@H]1OCC(O)C(O)C1O (stereo partly specified)	inconclusive: 3.16 µM [activator, partial curve, poor fit]	–
Cn1nc(C(=O)N2CCN(c3ccc(Cl)cc3)CC2)c2c1-c1ccccc1S(=O)(=O)C2	inconclusive: 14.1 µM [activator, partial curve, poor fit]	–
CCOc1ccc(Nc2sc(C(=O)c3ccc4c(c3)OCO4)c(N)c2S(=O)(=O)c2ccc(C)cc2)cc1	inconclusive: 22.4 µM [activator, single point]	–
COC(=O)[C@]12C[C@H](CC(=O)NCC3CCCCC3)C(=O)N(Cc3cccc4ccccc34)C1=C[C@H](C(C)C)O[C@@H]2C1CC1	inconclusive: 14.1 µM [activator, partial curve]	–
O=C(N1CCN(c2ccccc2F)CC1)C1(c2cccs2)CCOCC1	inactive	–
O=C(Nc1ccc(Br)cc1F)C(NS(=O)(=O)c1cccc2nsnc12)c1ccccc1 (stereo unspecified)	inactive	–
CCOc1ccccc1NC(=O)Nc1cc(C(=O)NCc2ccc(C)cc2)ccc1N1CCCC1	inactive	–
COc1ccc(OC)c(NC(=O)c2c(NCc3ccc(OC)c(OC)c3)sc3c2CCC3)c1	inconclusive: 50.1 µM [activator, single point]	–
COc1ccc(CNC(=O)c2cc3c(-c4ccccc4F)nn(C)c3s2)cc1	inconclusive: 50.1 µM [activator, single point]	–
COC(=O)CSc1nc2ccc(NC(C)=O)cc2s1	inactive	–
CCCCCCCCC(=O)c1c(OC)oc(C=O)cc1=O	inactive	–
CC(=O)N1c2ccc(S(=O)(=O)N3CCC(C(=O)Nc4cccc(C(F)(F)F)c4)CC3)cc2CC1C (stereo unspecified)	inconclusive: 50.1 µM [activator, single point]	–
CCC(C(=O)NC1CCCC1)N(C(=O)Cn1nnc(-c2ccc(OC)c(OC)c2)n1)C1CCCCC1 (stereo unspecified)	inconclusive: 20 µM [activator, partial curve, poor fit]	–
Cc1ccc(CNC(=O)c2oc3ccc(S(=O)(=O)N4CCC5(CC4)OCCO5)cc3c2C)cc1	active: 25.1 µM	–

SMILES	Potency	growth rescue (activation)
Cc1ccc(N2CCN(C(=O)c3ccccc3Br)CC2)c(C)c1	inactive	–
COc1ccc(S[C@]2(C(=O)N3CCOCC3)CC(=O)N(c3ccc(OC)cc3)[C@@H]2c2ccc(OC)cc2)cc1	inconclusive: 22.4 µM [activator, partial curve, poor fit]	–
Cc1ccc(S(=O)(=O)N2CCCC(C(=O)NCc3ccco3)C2)cc1 (stereo unspecified)	inactive	–
CC1CCN(S(=O)(=O)c2ccc(NC(=O)CCN3C(=O)c4ccccc4C3=O)cc2)CC1	inconclusive: 50.1 µM [activator, partial curve, poor fit]	–
CCCn1c(=O)[nH]c(=O)c2c(C(=O)OCC)cc(-c3cccs3)nc21	inconclusive: 11.2 µM [activator, partial curve, poor fit]	–
O=C(CSc1nc2c([nH]c3ccccc32)c(=O)n1-c1cccc(Cl)c1)NCC1CCCO1 (stereo unspecified)	inactive	–
Nc1c2c(nc3ccn(-c4ccccc4)c(=O)c13)CCCCC2	inactive	–
COC(=O)[C@@]1(Cc2ccc(F)cc2)[C@H]2c3cc(C(=O)N4CCCC4)n(Cc4cc(F)cc5c4OCOC5)c3C[C@H]2CN1C(=O)c1ccccc1	inconclusive: 35.5 µM [activator, partial curve, poor fit]	–
COc1ccc(-n2c(SCC(=O)Nc3cccc4ccccc34)nnc2-c2ccco2)cc1	inconclusive: 25.1 µM [activator, partial curve, poor fit]	–
C[C@H](NC(=O)c1nc[nH]c1C(=O)N[C@@H](CCCCNC(=O)OC(C)(C)C)C(=O)OC(C)(C)C)C(=O)OC(C)(C)C	inconclusive: 14.1 µM [activator, partial curve]	–
Cc1ccc(NC(=O)Cc2coc3ccc(C(C)C)cc23)c(C)c1	inconclusive: 22.4 µM [activator, partial curve]	–
O=C(Cn1c2ncccc2c(=O)n1-c1ccccc1)NCc1ccccc1Cl	inactive	–
COc1ccccc1CNc1ncnc2sccc12	inactive	–
COc1ccc(CCNC(=O)CSc2cn(CCNC(=O)c3cccc(C(F)(F)F)c3)c3ccccc23)cc1OC	inconclusive: 35.5 µM [activator, single point]	–
Cc1ccc(C)c(N2CCN(C(=O)CCS(=O)(=O)c3cc4c(cc3Cl)NC(=O)CO4)CC2)c1	inconclusive: 17.8 µM [activator, partial curve]	–
COc1ccccc1CNS(=O)(=O)c1ccc2c(c1)CC(=O)N2C	inconclusive: 50.1 µM [activator, single point]	–
CC(C)[C@H](NC(=O)OC(C)(C)C)c1cc(C(=O)NCCO)c(N)s1	inconclusive: 10 µM [activator, partial curve, poor fit]	–
CCOC(=O)C1=C(CN2CCc3ccccc32)NC(=O)NC1c1cccc([N+](=O)[O-])c1 (stereo unspecified)	inconclusive: 44.7 µM [activator, partial curve, poor fit]	–
COC(=O)c1cccc(Cn2ccc3ccc(-c4ccc5ccn(C(=O)c6ccc(C)cc6)c5c4)cc32)c1	inconclusive: 50.1 µM [activator, single point]	–
COc1ccc(C(=O)c2sc3nc(C)cc(-c4cccs4)c3c2N)cc1OC	inactive	–
COc1ccc(OC)c(NC(=O)CSc2ncnc3c2cnn3-c2ccccc2Cl)c1	inactive	–

SMILES	Potency	growth rescue (activation)
CC(C)C(=O)N1c2nc(-c3ccco3)nn2C2(CCCCC2)[C@@H]2CCCC[C@@H]21	inactive	–
COc1cc(CN2CC(=O)N(c3cccc(Cl)c3C)C2=S)cc(OC)c1OC	inconclusive: 35.5 µM [activator, single point]	–
C=CC[C@H](CC(=O)NCCO)C(=O)N[C@H](COC(=O)[C@@H](CC=C)Cc1ccc(F)cc1)C(C)(C)C	inconclusive: 20 µM [activator, partial curve]	–
Cc1cc(C(=O)OCC(=O)NC(=O)c2cccn2C)c2ccccc2n1	inactive	–
O=S(=O)(/C=C/c1ccccc1)N1CCN(c2cccc(Cl)c2)CC1	–	inconclusive: 53.5% [activator]
Cc1ccc(-c2cc(C(=O)N=Nc3c(O)[nH]c4ccccc34)[nH]n2)cc1C	inactive	–
COC(=O)C1=C(O)/C(=C\c2ccc(CNC(=O)C(=O)Nc3ccc(C)cc3)o2)N=C1C	inconclusive: 50.1 µM [activator, single point]	–
Cc1ccc(CN[C@@H]2CC[C@@]34CCCN3C(=O)CCC[C@H]4C2)cc1	inactive	–
CCS(=O)(=O)c1ncc(Cl)c(C(=O)Nc2ccc(S(=O)(=O)N3CCC(C)CC3)cc2)n1	inconclusive: 31.6 µM [activator, single point]	–
CCOC(=O)C1=CCN(S(=O)(=O)c2ccccc2C)C1c1cccc(Br)c1 (stereo unspecified)	inconclusive: 50.1 µM [activator, single point]	–
O=C1CCCc2cc(S(=O)(=O)N3CCCC(C(=O)Nc4ccc(F)c(Cl)c4)C3)ccc2N1 (stereo unspecified)	inconclusive: 28.2 µM [activator, single point]	–
Cc1ccc(-n2c(COc3ccccc3)nnc2SCC(=O)Nc2ccccc2-c2ccccc2)cc1	inconclusive: 14.1 µM [activator, partial curve, poor fit]	–
Cc1ccc(-c2nc3ncccn3c2Nc2ccc3c(c2)OCCO3)o1	inconclusive: 31.6 µM [activator, single point]	–
CCN(CC)C(=O)COc1ccc(/C=N/NC(=O)c2cc(-c3ccccc3OC)nc3ccccc23)cc1OC	inconclusive: 50.1 µM [activator, single point]	–
C[C@H](CO)N1C[C@H](C)[C@@H](CN(C)C(=O)Nc2ccc(C(F)(F)F)cc2)Oc2ccc(NC(=O)Cc3ccccc3)cc2C1=O	inconclusive: 28.2 µM [activator, single point]	–
CCOc1ccccc1CNC(=O)c1ccc(N2Cc3ccccc3Oc3ncccc32)s1	inactive	–
CCC1(C)CC(c2nc(-c3ccc(OC)cc3)cs2)CCS1 (stereo unspecified)	inconclusive: 12.6 µM [activator, partial curve]	–
O=C(c1cc(=O)c2ccccc2o1)N1CCN(c2ccccc2F)CC1	inactive	–
COCCN(C(=O)COC(=O)c1oc2ccc(OC)cc2c1C)c1c(N)n(Cc2ccccc2)c(=O)[nH]c1=O	inactive	–
